# According to PubChem BioAssay AID1362 (SRMLSC, 2008):
# The list shows a part of the results. Shown are side measurements of this screen, not its main read-out; they come without a call. Most of these compounds were active or inconclusive in the main read-out, so they are no random draw.
# Assay: growth inhibition of WT strain, primary screen, mitochondrial fusion inhibitor project, WT and mutant strains, chemical genetic (AID 1362); also: tested in S. cerevisiae
# Conditions: mitochondrial fusion phenotypic screen, at 10 µM
row,Compound,inhibition [%]
1,CN=C1S/C(=C\c2cc(C)n(-c3ccccc3F)c2C)C(=O)N1C,27.1
2,COc1ccc(Cc2nc3ccc(S(=O)(=O)N4CCOCC4)cc3[nH]2)cc1,5.2
3,CCc1cc(-c2n[nH]c(=S)n2-c2cccc(C)c2)cs1,19.7
4,Cc1cc(N/N=C/c2ccccc2)nc(NCc2ccccc2)n1,34.4
5,COc1ccccc1NC(=S)NC1CCCCCC1,21.9
6,CCOC(=O)c1c(NC(=O)OC)sc(C(=O)N(C)C)c1C,20.2
7,FC(F)(F)c1cccc(NC(=S)NCc2ccc(Cl)cc2)c1,38.5
8,Cc1nn(Cc2ccccc2Cl)c(C)c1NC(=O)NC12CC3CC(CC(C3)C1)C2,20.6
9,Cc1ccc(Nc2nc(-c3cccs3)cs2)nc1,56.5
10,CCC(C)/C(C)=N/NC(=O)c1ccc(COc2ccc(Cl)c(C)c2)cc1 (stereo not given),67.3
11,CCCCSc1nnc(-c2ccccc2)c2ccccc12,25.3
12,O=C(OC1CCCCC1)c1ccc(NC(=O)c2ccco2)cc1,65.2
13,CC(C)(C)c1ccc(OC(=O)c2ccc3nsnc3c2)cc1,41.7
14,CC(C)(C)c1ccc(OCc2nc(-c3ccccn3)no2)c(Br)c1,39.9
15,CCOC(=O)c1c(C)n(-c2ccc(C)cc2)c2ccc(OCC(O)CN3CCN(C)CC3)cc12 (stereo not given),33.7
16,Cc1cccc(CSC(Nc2ccc(F)cc2)=C(C#N)C#N)c1,55.4
17,O=C(NCc1ccco1)c1cc(-c2ccccc2)on1,4.37
18,COc1ccc(C(=O)Nc2nc3ccccc3s2)cc1OC,28.3
19,Nc1nc(CSc2nnnn2-c2ccccc2)nc(N2CCCc3ccccc32)n1,-5.93
20,CC1CCCN(C(=O)N2c3ccccc3Sc3ccccc32)C1 (stereo not given),18.5
21,CN1C(=O)c2ccccc2Sc2ccc(NC(=O)N3CCCC3)cc21,32.4
22,O=C(Nc1ccc([N+](=O)[O-])cc1)Nc1nc(-c2ccc(Cl)s2)cs1,80.6
23,Cn1c(NCCCO)nc2c(c1=O)C1(CCCCC1)Cc1ccccc1-2,25.2
24,O=C1C=C(c2ccccc2)C(=O)N1Nc1ccccc1,84.5
25,C/C(=N\OCC(=O)NC12CC3CC(CC(C3)C1)C2)c1cc2ccccc2o1,23.8
26,O=C(Nc1nc(-c2ccccn2)cs1)c1ccc(Br)s1,14.8
27,Cc1ccc(Nc2nc(N)c([N+](=O)[O-])c(NCc3ccco3)n2)cc1C,19.8
28,CCCCCCCCCCCCCCCC[n+]1ccc(C(N)=O)cc1,99

row,Compound,inhibition [%]
1,Cc1ccccc1-c1ncc(CN2CCC(CO)(CCCc3ccccc3)CC2)cn1,82.7
2,CN(C)CCCN1c2ccccc2Sc2ccc(C(F)(F)F)cc21,95
3,Cn1c(-c2sccc2OCc2ccc(Cl)cc2Cl)n[nH]c1=S,52.3
4,CCOc1cc(-c2nc(C)c(C(C)=O)n2O)ccc1OCC(=O)Nc1cccc(C)c1,34.2
5,c1ccc(-c2csc3ncnc(N4CCc5ccccc5C4)c23)cc1,-18.6
6,CC(=O)Oc1cc2c(cc1Cl)C1(CC(c3ccccc3Cl)O2)CC(C)(C)NC(=S)N1 (stereo not given),27.9
7,Cc1ccc(C(C)NC(=O)/C(C#N)=C\c2c(C)[nH]c3ccccc23)cc1 (stereo not given),69.1
8,O=C(OC(c1ccccc1)c1nccc2ccccc12)c1cccc([N+](=O)[O-])c1 (stereo not given),63.8
9,Cc1cc(Cl)ccc1Oc1ncc(CN2CCN(c3ccccc3)CC2)s1,47.2
10,Cc1ccc(NS(=O)(=O)c2ccc(C)c(NC(=O)COc3ccccc3)c2)c(C)c1,52.6
11,Cc1cccc(OCC(=O)Nc2nc3ccc([N+](=O)[O-])cc3s2)c1C,4.39
12,COc1ccccc1NC(=S)N(Cc1ccc(C)cc1)Cc1cccnc1,34
13,Cc1cc(Nc2cccc(C(F)(F)F)c2)n2nc(C)nc2n1,-5.29
14,CC(=O)Nc1ccc(S(=O)(=O)N2CCN(C)CC2)cc1,-12.3
15,CCc1c(C)nc(Nc2nc(C)c3ccc(OC)cc3n2)[nH]c1=O,37.2
16,CC(C)(C)c1ccc(S(=O)(=O)Nc2ccc(Cc3ccncc3)cc2)cc1,1.83
17,CCOC(=O)c1c(C)[nH]c(N=Nc2cccc(C)c2)c1C,63.1
18,COc1ccc(CCN(Cc2cc3cc(C)cc(C)c3nc2Cl)C(=O)C2CC2)cc1,-1.48
19,O=C(NC1CC1)c1ccc2c(c1)C1C3CCC(C3)C1C(c1ccccc1)N2 (stereo not given),40.4
20,COc1ccc(/C=C/C(=O)c2ccc(O)cc2)cc1COc1ccc(F)cc1,-6.2
21,O=[N+]([O-])c1ccc(O)c(-c2nc(-c3ccccc3)c(-c3cccs3)[nH]2)c1,55.1
22,CCc1ccc(C2=CC(c3cc(Br)ccc3F)n3ncnc3N2)cc1 (stereo not given),14.9
23,O=[N+]([O-])c1ccc(/C=N/Nc2nc(N3CCCCCC3)nc(N3CCCCCC3)n2)o1,6.1
24,O=S(=O)(Nc1cccc(-c2nc3cccnc3s2)c1)c1ccc2c(c1)OCCO2,22
25,CC(C)Oc1ccccc1OCCCOc1cccc2cccnc12,44.3
26,S=C(NCCNCc1ccccc1)NC1CCCCC1,4.03
27,O=C1c2cccc3c([N+](=O)[O-])ccc(c23)C(=O)N1Cc1cccnc1,36.9
